Test results from a compilation of properties of binary mixtures (doi:10.1021/je500765m).
Some of these densities may be calculated back from excess volumes.

Assay: xn = mol fraction of the nth substance listed
Details: 101 kPa, x2 = 0.0138

CCCC[n+]1ccn(C)c1.N#C[C-](C#N)C#N + O
Details | mass density [kg/m3]
293.15 K | 1050.9
298.15 K | 1047.4
303.15 K | 1044.1
308.15 K | 1040.7
313.15 K | 1037.3
318.15 K | 1034
323.15 K | 1030.7
338.15 K | 1020.8
343.15 K | 1017.6
353.15 K | 1011.1
358.15 K | 1007.9
363.15 K | 1004.7
